What all share (test): Viability of human cancer cell lines after 72 h of drug (GDSC screen)
Compound in one assay: C/C(=C\c1csc(C)n1)[C@@H]1C[C@@H]2O[C@]2(C)CCC[C@H](C)[C@H](O)[C@@H](C)C(=O)C(C)(C)[C@@H](O)CC(=O)O1 [Epothilone B]
The settings on record: top dose 0.032 µM; top dose inferred. Here is the method:
(§1)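 Human cancer cell lines in 384-well plates, medium with 10% serum, drug for 72 h over a 256-fold dose range (nine 2-fold or five 4-fold steps up to the top dose). Adherent lines were fixed and stained with the nucleic acid dye Syto60, suspension lines read with resazurin; signal relative to control wells, capped at 0 and 100%. One two-parameter sigmoid per drug and line, fitted in a mixed model over all curves with the slope shared within a line.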

Compound in another assay: CC(C)CC(=O)Nc1n[nH]c2c1CN(C(=O)C1CCN(C)CC1)C2(C)C [PHA-793887]
The settings on record: top dose 10.24 µM. Here is the method: as §1

Compound in a further assay: CCCS(=O)(=O)Nc1ccc(F)c(C(=O)c2c[nH]c3ncc(Cl)cc23)c1F [PLX4720]
The following applies: top dose 10 µM. Here is the method:
as §1

Compound in another assay: CCc1nc(N)nc(N)c1-c1ccc(Cl)cc1 [Pyrimethamine]
The following applies: top dose 20 µM; top dose inferred. Here is the method: as §1

Compound in another assay: CN1CCN(CCOc2cc(OC3CCOCC3)c3c(Nc4c(Cl)ccc5c4OCO5)ncnc3c2)CC1 [AZD-0530]
The following applies: top dose 2 µM. Here is the method: as §1

Compound in a further assay: C[C@@H](N)c1ccc(C(=O)Nc2ccnc3[nH]ccc23)cc1 [Y-39983]
The following applies: top dose 20 µM; top dose inferred. Here is the method:
as §1

Compound in another assay: NC(=O)Nc1sc(-c2ccc(F)cc2)cc1C(N)=O [TPCA-1]
The settings on record: top dose 20 µM. Here is the method:
as §1

The mark [1] stands for this setting: screen: GDSC drug entry 1371, top dose inferred.

Among the data in the supplement of paper PMC4967469 are AUC and IC50 values, retold here.

Lines with a small IC50 respond at low doses; where the fit passes the top or lowest dose, that dose stands as a limit. AUC, from the same fit, is the share of area under the viability curve across the 256-fold dose range; the more sensitive the line, the further below 1. For some assays here: An inferred top dose is not printed in the source and was worked back from the curve model. For some assays here: An entry number marks a drug with two screens in the source, which often give different values.

Consider TE-5 (oesophagus, adherent), for which the AUC with Epothilone B was determined as 0.551; with PHA-793887, 0.887; with PLX4720 (screen: GDSC drug entry 1036) it was 0.98; with PLX4720 (setting [1]) it was 0.981; with Pyrimethamine, 0.892; with AZD-0530 it was 0.963. In addition, the AUC in the assay with Y-39983 worked out at 0.969; with TPCA-1, 0.95. In addition, the IC50 (as a rule, the midpoint of a concentration-inhibition curve) in the assay with Epothilone B was 0.00281 µM; with PHA-793887, above 10.2 µM; with PLX4720 (screen: GDSC drug entry 1036), above 10 µM; with PLX4720 (setting [1]), above 10 µM; with Pyrimethamine it was above 20 µM; in the assay with AZD-0530, above 2 µM. For the same cell line, the IC50 with Y-39983 and with TPCA-1 was above 20 µM throughout.
Consider TE-6 (oesophagus, adherent), for which the AUC in the assay with Epothilone B came to 0.769; with PHA-793887, 0.954; with PLX4720 (screen: GDSC drug entry 1036), 0.986; with PLX4720 (setting [1]) it was 0.984; with Pyrimethamine, 0.907; with AZD-0530, 0.921. The AUC came to 0.986 in the assay with Y-39983 and 0.936 with TPCA-1. The IC50 was 0.0141 µM in the assay with Epothilone B; above 10.2 µM in the assay with PHA-793887; above 10 µM with PLX4720 (screen: GDSC drug entry 1036); above 10 µM in the assay with PLX4720 (setting [1]); above 20 µM in the assay with Pyrimethamine; above 2 µM with AZD-0530. Besides, the IC50 with Y-39983 and with TPCA-1 was above 20 µM each time.
As for TE-8 (oesophagus, adherent), the AUC is 0.181 with Epothilone B; 0.98 with PHA-793887; 0.948 with PLX4720 (screen: GDSC drug entry 1036); 0.984 with PLX4720 (setting [1]); 0.968 with Pyrimethamine; 0.791 in the assay with AZD-0530. Further, the figures for the AUC with Y-39983 and with TPCA-1 were 0.929 and 0.824, respectively. In addition, the IC50 in the assay with Epothilone B is 0.0002 µM; with PHA-793887, above 10.2 µM; with PLX4720 (screen: GDSC drug entry 1036) it was above 10 µM; with PLX4720 (setting [1]), above 10 µM; with Pyrimethamine, above 20 µM; with AZD-0530, 0.966 µM. The results for the IC50 in the assay with Y-39983 and with TPCA-1 were above 20 µM and 13 µM, respectively.
On to TE-9 (oesophagus, adherent), for which the AUC with Epothilone B was found to be 0.477; with PHA-793887 it was 0.987; with PLX4720 (screen: GDSC drug entry 1036) it was 0.978; with PLX4720 (setting [1]), 0.979; in the assay with Pyrimethamine, 0.982; with AZD-0530 it was 0.972. Moreover, the AUC was 0.984 in the assay with Y-39983 and 0.979 with TPCA-1. The IC50 with Epothilone B was 0.00173 µM; in the assay with PHA-793887, above 10.2 µM; with PLX4720 (screen: GDSC drug entry 1036), above 10 µM; with PLX4720 (setting [1]), above 10 µM; with Pyrimethamine, above 20 µM; with AZD-0530 it was above 2 µM. Besides, the IC50 with Y-39983 and in the assay with TPCA-1 was above 20 µM throughout.
Turning to TE-10 (oesophagus, adherent), the AUC with Epothilone B turned out to be 0.378; with PHA-793887 it was 0.922; with PLX4720 (screen: GDSC drug entry 1036) it was 0.988; in the assay with PLX4720 (setting [1]) it was 0.986; with Pyrimethamine it was 0.937; in the assay with AZD-0530 it was 0.846. Moreover, the AUC in the assay with Y-39983 stood at 0.98; with TPCA-1, 0.942. Moreover, the IC50 in the assay with Epothilone B was 0.000927 µM; with PHA-793887, above 10.2 µM; with PLX4720 (screen: GDSC drug entry 1036), above 10 µM; with PLX4720 (setting [1]), above 10 µM; with Pyrimethamine it was above 20 µM; in the assay with AZD-0530, 1.42 µM. For the same cell line, the IC50 in the assay with Y-39983 and with TPCA-1 was above 20 µM throughout.
Consider TE-15 (oesophagus, suspension), for which the AUC in the assay with Epothilone B is 0.203; with PHA-793887, 0.809; in the assay with PLX4720 (screen: GDSC drug entry 1036), 0.915; in the assay with PLX4720 (setting [1]), 0.954; in the assay with Pyrimethamine it was 0.974; with AZD-0530 it was 0.65. The values for the AUC with Y-39983 and with TPCA-1 were 0.979 and 0.611, respectively. Also, the IC50 with Epothilone B is 0.000231 µM; in the assay with PHA-793887, 6.19 µM; with PLX4720 (screen: GDSC drug entry 1036), above 10 µM; in the assay with PLX4720 (setting [1]) it was above 10 µM; in the assay with Pyrimethamine, above 20 µM; in the assay with AZD-0530, 0.345 µM. Moreover, the IC50 in the assay with Y-39983 is above 20 µM; with TPCA-1, 2.64 µM.
In the case of TGBC1TKB (biliary tract, adherent), the AUC with Epothilone B worked out at 0.88; with PHA-793887 it was 0.989; with PLX4720 (screen: GDSC drug entry 1036) it was 0.98; in the assay with PLX4720 (setting [1]), 0.985; with Pyrimethamine, 0.989; in the assay with AZD-0530, 0.959. Besides, the AUC with Y-39983 worked out at 0.983; with TPCA-1, 0.965. Besides, the IC50 with Epothilone B was above 0.032 µM; with PHA-793887, above 10.2 µM; in the assay with PLX4720 (screen: GDSC drug entry 1036), above 10 µM; with PLX4720 (setting [1]) it was above 10 µM; with Pyrimethamine, above 20 µM; with AZD-0530 it was above 2 µM. The IC50 with Y-39983 and in the assay with TPCA-1 was above 20 µM throughout.
For the cell line TGW (neuroblastoma, adherent), the AUC was found to be 0.802 with Epothilone B; 0.95 with PHA-793887; 0.988 with PLX4720 (screen: GDSC drug entry 1036); 0.981 with PLX4720 (setting [1]); 0.937 in the assay with Pyrimethamine; 0.984 with AZD-0530. Besides, the AUC turned out to be 0.821 in the assay with Y-39983 and 0.815 in the assay with TPCA-1. Further, the IC50 in the assay with Epothilone B was 0.0132 µM; with PHA-793887, above 10.2 µM; with PLX4720 (screen: GDSC drug entry 1036) it was above 10 µM; in the assay with PLX4720 (setting [1]), above 10 µM; with Pyrimethamine, above 20 µM; in the assay with AZD-0530, above 2 µM. For the same cell line, the IC50 with Y-39983 was found to be 9.51 µM; in the assay with TPCA-1, 9.06 µM.
